Test results from the supplement of paper PMC8728848.
This is one part of the list.

Assays:
Experiment in all cases: glycan array binding signal (z-score within array); higher = stronger binding
Details in all cases: glycan notation: IUPAC condensed, linker removed
[1] = target: Gal(b1-3)GlcNAc(b1-2)Man(a1-3)[Gal(b1-3)GlcNAc(b1-2)Man(a1-6)]Man(b1-4)GlcNAc(b1-4)GlcNAc
Summary of the method: (§1)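 The binding signal is a Z-score computed within each array. Data were drawn from 3228 arrays in the Consortium for Functional Glycomics database, restricted to those with a known protein sequence. Scores were averaged over arrays of the same protein sequence at different concentrations or buffers, and over linkers, and negative values can be taken as non-binding.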

[2] = target: Gal(b1-3)GlcNAc(b1-2)Man(a1-3)[Gal(b1-3)GlcNAc(b1-2)Man(a1-6)]Man(b1-4)GlcNAc(b1-4)[Fuc(a1-6)]GlcNAc
Summary of the method: as §1

[3] = target: Gal(b1-3)GlcNAc(b1-2)Man(a1-3)[GlcNAc(b1-4)][Gal(b1-3)GlcNAc(b1-2)Man(a1-6)]Man(b1-4)GlcNAc(b1-4)GlcNAc
Summary of the method: as §1

[4] = target: Gal(b1-3)GlcNAc(b1-2)[Gal(b1-3)GlcNAc(b1-6)]Man(a1-6)[Gal(b1-3)GlcNAc(b1-2)Man(a1-3)]Man(b1-4)GlcNAc(b1-4)GlcNAc
Summary of the method: as §1

[5] = target: Gal(b1-3)GlcNAc(b1-3)Gal(b1-3)GlcNAc
Summary of the method: as §1

[6] = target: Gal(b1-3)GlcNAc(b1-3)Gal(b1-4)Glc
Summary of the method: as §1

[7] = target: Gal(b1-3)GlcNAc(b1-3)Gal(b1-4)GlcNAc
Summary of the method: as §1

[8] = target: Gal(b1-3)GlcNAc(b1-3)Gal(b1-4)GlcNAc(b1-2)Man(a1-3)[Gal(b1-3)GlcNAc(b1-3)Gal(b1-4)GlcNAc(b1-2)Man(a1-6)]Man(b1-4)GlcNAc(b1-4)GlcNAc
Summary of the method: as §1

[9] = target: Gal(b1-3)GlcNAc(b1-3)Gal(b1-4)GlcNAc(b1-2)[Gal(b1-3)GlcNAc(b1-3)Gal(b1-4)GlcNAc(b1-6)]Man(a1-6)[Gal(b1-3)GlcNAc(b1-3)Gal(b1-4)GlcNAc(b1-2)Man(a1-3)]Man(b1-4)GlcNAc(b1-4)[Fuc(a1-6)]GlcNAc
Summary of the method: as §1

[10] = target: Gal(b1-3)GlcNAc(b1-3)Gal(b1-4)GlcNAc(b1-3)Gal(b1-4)GlcNAc(b1-2)[Gal(b1-3)GlcNAc(b1-3)Gal(b1-4)GlcNAc(b1-3)Gal(b1-4)GlcNAc(b1-6)]Man(a1-6)[Gal(b1-3)GlcNAc(b1-3)Gal(b1-4)GlcNAc(b1-3)Gal(b1-4)GlcNAc(b1-2)Man(a1-3)]Man(b1-4)GlcNAc(b1-4)[Fuc(a1-6)]GlcNAc
Summary of the method: as §1

[11] = target: Gal(b1-3)GlcNAc(b1-3)Gal(b1-4)GlcNAc(b1-6)[Gal(b1-3)GlcNAc(b1-3)]Gal(b1-4)Glc
Summary of the method: as §1

[12] = target: Gal(b1-3)GlcNAc(b1-3)Gal(b1-4)[Fuc(a1-3)]GlcNAc
Summary of the method: as §1

[13] = target: Gal(b1-3)GlcNAc(b1-3)Gal(b1-4)[Fuc(a1-3)]GlcNAc(b1-6)[Gal(b1-3)GlcNAc(b1-3)]Gal(b1-4)Glc
Summary of the method: as §1

[14] = target: Gal(b1-3)GlcNAc(b1-3)GalNAc
Summary of the method: as §1

[15] = target: Gal(b1-3)GlcNAc(b1-6)Gal(b1-4)GlcNAc
Summary of the method: as §1

[16] = target: Gal(b1-3)GlcNAc(b1-6)GalNAc
Summary of the method: as §1

[17] = target: Gal(b1-3)GlcNAc(b1-6)[Gal(b1-3)]GalNAc
Summary of the method: as §1

Gal(b1-3)GlcNAc6S = target: Gal(b1-3)GlcNAc6S
Summary of the method: as §1

[18] = target: Gal(b1-3)[Fuc(a1-4)]GlcNAc
Summary of the method: as §1

[19] = target: Gal(b1-3)[Fuc(a1-4)]GlcNAc(b1-2)Man
Summary of the method: as §1

[20] = target: Gal(b1-3)[Fuc(a1-4)]GlcNAc(b1-2)Man(a1-3)[Gal(b1-3)[Fuc(a1-4)]GlcNAc(b1-2)Man(a1-6)]Man(b1-4)GlcNAc(b1-4)[Fuc(a1-6)]GlcNAc
Summary of the method: as §1

[21] = target: Gal(b1-3)[Fuc(a1-4)]GlcNAc(b1-3)Gal(b1-3)[Fuc(a1-4)]GlcNAc
Summary of the method: as §1

[22] = target: Gal(b1-3)[Fuc(a1-4)]GlcNAc(b1-3)Gal(b1-4)[Fuc(a1-3)]GlcNAc
Summary of the method: as §1

[23] = target: Gal(b1-3)[Fuc(a1-4)]GlcNAc(b1-6)GalNAc
Summary of the method: as §1

[24] = target: Gal(b1-3)[GlcNAc(b1-6)]GalNAc
Summary of the method: as §1

[25] = target: Gal(b1-3)[Neu5Ac(a2-6)]GalNAc
Summary of the method: as §1

[26] = target: Gal(b1-3)[Neu5Ac(a2-6)]GlcNAc(b1-4)Gal(b1-4)Glc
Summary of the method: as §1

[27] = target: Gal(b1-3)[Neu5Ac(b2-6)]GalNAc
Summary of the method: as §1

Gal(b1-4)Gal = target: Gal(b1-4)Gal
Summary of the method: as §1

[28] = target: Gal(b1-4)GalNAc(a1-3)[Fuc(a1-2)]Gal(b1-4)GlcNAc
Summary of the method: as §1

[29] = target: Gal(b1-4)GalNAc(b1-3)[Fuc(a1-2)]Gal(b1-4)GlcNAc
Summary of the method: as §1

Gal(b1-4)Glc = target: Gal(b1-4)Glc
Summary of the method: as §1

Gal(b1-4)Glc6S = target: Gal(b1-4)Glc6S
Summary of the method: as §1

Gal(b1-4)GlcNAc = target: Gal(b1-4)GlcNAc
Summary of the method: as §1

[30] = target: Gal(b1-4)GlcNAc(a1-6)Gal(b1-4)GlcNAc
Summary of the method: as §1

Gal(b1-4)GlcNAc(b1-2)Man = target: Gal(b1-4)GlcNAc(b1-2)Man
Summary of the method: as §1

[31] = target: Gal(b1-4)GlcNAc(b1-2)Man(a1-3)Man(b1-4)GlcNAc(b1-4)GlcNAc
Summary of the method: as §1

[32] = target: Gal(b1-4)GlcNAc(b1-2)Man(a1-3)[Gal(b1-4)GlcNAc(b1-2)Man(a1-6)]Man(b1-4)GlcNAc(b1-4)GlcNAc
Summary of the method: as §1

[33] = target: Gal(b1-4)GlcNAc(b1-2)Man(a1-3)[Gal(b1-4)GlcNAc(b1-2)Man(a1-6)]Man(b1-4)GlcNAc(b1-4)[Fuc(a1-6)]GlcNAc
Summary of the method: as §1

[34] = target: Gal(b1-4)GlcNAc(b1-2)Man(a1-3)[Gal(b1-4)GlcNAc(b1-2)Man(a1-6)][Gal(b1-4)GlcNAc(b1-4)]Man(b1-4)GlcNAc(b1-4)[Fuc(a1-6)]GlcNAc
Summary of the method: as §1

[35] = target: Gal(b1-4)GlcNAc(b1-2)Man(a1-3)[Gal(b1-4)GlcNAc(b1-2)Man(a1-6)][GlcNAc(b1-4)]Man(b1-4)GlcNAc(b1-4)[Fuc(a1-6)]GlcNAc
Summary of the method: as §1

[36] = target: Gal(b1-4)GlcNAc(b1-2)Man(a1-3)[GlcNAc(b1-2)Man(a1-6)]Man(b1-4)GlcNAc(b1-4)GlcNAc
Summary of the method: as §1

[37] = target: Gal(b1-4)GlcNAc(b1-2)Man(a1-3)[GlcNAc(b1-4)][Gal(b1-4)GlcNAc(b1-2)Man(a1-6)]Man(b1-4)GlcNAc(b1-4)GlcNAc
Summary of the method: as §1

[38] = target: Gal(b1-4)GlcNAc(b1-2)Man(a1-3)[Man(a1-6)]Man(b1-4)GlcNAc(b1-4)GlcNAc
Summary of the method: as §1

[39] = target: Gal(b1-4)GlcNAc(b1-2)Man(a1-6)Man(b1-4)GlcNAc(b1-4)GlcNAc
Summary of the method: as §1

B1: CrataBL (Crataeva tapia), C0HJA4 (protein)
chain: AILTGVPYYILPSTSRAGFSPDNLRKNTSQLSCPLDLITQLRFPRRIGVPVIFTPQNSSLKVVPLSHNLNIHTCSDLWFCPESKIWTVKSSLTHGGSVVTTGGTFRSLGSWFRIERHGDSYKLVHCPRGSTPCRDVGIETVGGGGRRYLAPRDRPLAVRFTRASG
[1]
  glycan array binding signal (z-score): 0.003
[2]
  glycan array binding signal (z-score): -0.332
[3]
  glycan array binding signal (z-score): -0.059
[4]
  glycan array binding signal (z-score): -0.22
[5]
  glycan array binding signal (z-score): -0.285
[6]
  glycan array binding signal (z-score): -0.465
[7]
  glycan array binding signal (z-score): -0.522
[8]
  glycan array binding signal (z-score): -0.524
[9]
  glycan array binding signal (z-score): 1.29
[10]
  glycan array binding signal (z-score): 0.522
[11]
  glycan array binding signal (z-score): -0.334
[12]
  glycan array binding signal (z-score): -0.475
[13]
  glycan array binding signal (z-score): -0.529
[14]
  glycan array binding signal (z-score): -0.078
[15]
  glycan array binding signal (z-score): -0.257
[16]
  glycan array binding signal (z-score): -0.326
[17]
  glycan array binding signal (z-score): -0.182
Gal(b1-3)GlcNAc6S
  glycan array binding signal (z-score): 0.373
[18]
  glycan array binding signal (z-score): -0.403
[19]
  glycan array binding signal (z-score): 0.482
[20]
  glycan array binding signal (z-score): -0.411
[21]
  glycan array binding signal (z-score): -0.412
[22]
  glycan array binding signal (z-score): -0.523
[23]
  glycan array binding signal (z-score): -0.066
[24]
  glycan array binding signal (z-score): -0.234
[25]
  glycan array binding signal (z-score): -0.371
[26]
  glycan array binding signal (z-score): -0.353
[27]
  glycan array binding signal (z-score): -0.333
Gal(b1-4)Gal
  glycan array binding signal (z-score): 0.304
[28]
  glycan array binding signal (z-score): -0.514
[29]
  glycan array binding signal (z-score): -0.489
Gal(b1-4)Glc
  glycan array binding signal (z-score): -0.482
Gal(b1-4)Glc6S
  glycan array binding signal (z-score): 1.84
Gal(b1-4)GlcNAc
  glycan array binding signal (z-score): -0.256
[30]
  glycan array binding signal (z-score): -0.511
Gal(b1-4)GlcNAc(b1-2)Man
  glycan array binding signal (z-score): -0.229
[31]
  glycan array binding signal (z-score): -0.436
[32]
  glycan array binding signal (z-score): -0.486
[33]
  glycan array binding signal (z-score): -0.242
[34]
  glycan array binding signal (z-score): -0.476
[35]
  glycan array binding signal (z-score): -0.533
[36]
  glycan array binding signal (z-score): -0.546
[37]
  glycan array binding signal (z-score): -0.484
[38]
  glycan array binding signal (z-score): -0.309
[39]
  glycan array binding signal (z-score): -0.418
